In the antibiotic and cytotoxicity screens of Wong et al. (2023):
The list shows a part of the results.

tested on: HSkMC (human skeletal muscle cells); assay: cytotoxicity call (relative viability < 0.9); settings: 10 µM

SMILES	cytotoxicity call
C[C@@H]1O[C@@H](OC[C@H]2O[C@@H](Oc3c(-c4ccc(O)cc4)oc4cc(O)cc(O)c4c3=O)[C@H](O)[C@@H](O)[C@@H]2O)[C@H](O)[C@H](O)[C@H]1O	inactive
C[C@@H]1CN([C@@H](C)CO)C(=O)c2cc(NS(=O)(=O)c3ccccc3)ccc2O[C@@H]1CN(C)S(C)(=O)=O	inactive
C[C@@H]1CN([C@H](C)CO)S(=O)(=O)c2ccc(-c3ccc(F)cc3)cc2O[C@@H]1CN(C)S(C)(=O)=O	inactive
C[C@H]1CN([C@@H](C)CO)C(=O)c2cc(NC(=O)Nc3ccccc3)ccc2O[C@@H]1CN(C)CC1CCCCC1	inactive
C[C@H]1CCCCO[C@H](CN(C)Cc2ccc(C(F)(F)F)cc2)[C@@H](C)CN([C@@H](C)CO)C(=O)c2cc(NC(=O)Nc3cccc4ccccc34)ccc2O1	inactive
Cc1noc(C)c1NC(=O)Nc1cccc2c1O[C@H](CN(C)C(=O)Nc1cccc3ccccc13)[C@@H](C)CN([C@@H](C)CO)C2=O	inactive
C[C@@H]1CN([C@@H](C)CO)C(=O)c2cc(-c3ccc(C(=O)N(C)C)cc3)cnc2O[C@H]1CN(C)C(=O)c1cccnc1	inactive
COc1ccc2c3c(n(c2c1)C)[C@@H](CO)N(C[C@]13CCN(CC1)C(=O)C1CCOCC1)C(=O)C1CCOCC1	inactive
Nc1ccn(C2OC(CO)C(O)C2O)c(=O)n1 (stereo not given)	inactive
C[C@H]1CN([C@@H](C)CO)S(=O)(=O)c2ccc(C#CC3CC3)cc2O[C@@H]1CN(C)Cc1cccc(F)c1	inactive
Cc1ccc(S(=O)(=O)N(C)C[C@@H]2Oc3ccc(NC(=O)CCCN(C)C)cc3C(=O)N([C@@H](C)CO)C[C@@H]2C)cc1	inactive
C[C@@H]1CN([C@@H](C)CO)C(=O)c2cc(NS(=O)(=O)c3cn(C)cn3)ccc2O[C@@H](C)CCCCO[C@H]1CN(C)CC1CC1	inactive
O=C1C=CC(=O)N1	active
C[C@@H]1CN([C@H](C)CO)C(=O)c2cc(NC(=O)C3CC3)ccc2O[C@@H]1CN(C)S(=O)(=O)c1cccs1	inactive
C=CC[C@H](CC(=O)N(CCO)Cc1ccccc1)C(=O)N[C@H](COC(=O)[C@H](CC=C)CC(=O)OC(C)(C)C)Cc1c[nH]c2ccccc12	inactive
COc1ccc(CN(C)C[C@@H]2Oc3ccc(NC(=O)Nc4cccc5ccccc45)cc3CC(=O)N([C@@H](C)CO)C[C@@H]2C)cc1	active
Cc1noc(C)c1NC(=O)Nc1ccc2c(c1)C(=O)N([C@@H](C)CO)C[C@@H](C)[C@@H](CN(C)C(=O)Nc1ccccc1)OCCCC[C@H](C)O2	inactive
O=C(O)C1CSCN1 (stereo not given)	inactive
C[C@H]1CCCCO[C@@H](CN(C)CC2CCCCC2)[C@@H](C)CN([C@@H](C)CO)C(=O)c2cc(NC(=O)Nc3ccccc3)ccc2O1	inactive
COc1ccc(C#Cc2cnc3c(c2)C(=O)N([C@@H](C)CO)C[C@@H](C)[C@@H](CN(C)C(=O)CC2CC2)O3)cc1	inactive

SMILES	cytotoxicity call
C[C@H](CO)N1C[C@H](C)[C@H](CN(C)C(=O)Nc2ccc3c(c2)OCO3)Oc2ccc(NS(C)(=O)=O)cc2C1=O	inactive
C[C@H](CO)N1C[C@H](C)[C@H](CN(C)Cc2ccc(Cl)c(Cl)c2)Oc2c(NC(=O)C3CCCCC3)cccc2C1=O	inactive
C[C@@H]1CN([C@H](C)CO)C(=O)c2cc(NC(=O)CCCCCC(=O)Nc3ccccc3N)ccc2O[C@@H]1CN(C)Cc1ccc(C(F)(F)F)cc1	inactive
N[C@@H](C(=O)O)[C@@H](O)[C@H](O)[C@H](O)CO	inactive
O=C(C[C@@H]1C=C[C@@H](NC(=O)c2ccc(F)cc2)[C@H](CO)O1)NCc1ccncn1	inactive
O=C(C[C@@H]1CC[C@@H](NS(=O)(=O)c2ccccc2F)[C@H](CO)O1)NCCCN1CCOCC1	inactive
C[C@@H]1CN([C@@H](C)CO)C(=O)c2cc(NC(=O)NC3CCCCC3)ccc2O[C@H]1CN(C)Cc1ccc(C(=O)Nc2ccccc2N)cc1	inactive
C[C@H]1CN([C@@H](C)CO)C(=O)c2cc(NS(=O)(=O)c3ccc(F)cc3)ccc2O[C@H]1CN(C)Cc1ccc(Cl)c(Cl)c1	inactive
C[C@@H]1CN([C@@H](C)CO)C(=O)CCCn2nncc2CO[C@H]1CN(C)C(=O)c1cc(-c2ccccc2)on1	inactive
O=c1[nH]c(=O)n([C@@H]2O[C@H](CO)[C@@H](O)[C@H]2O)cc1Br	inactive
Cc1noc(C)c1NC(=O)N(C)C[C@H]1OCCCC[C@@H](C)Oc2ccc(NC(=O)Cc3ccccc3)cc2C(=O)N([C@H](C)CO)C[C@@H]1C	inactive
COc1ccc(S(=O)(=O)N2C[C@H](O)COC[C@H]3O[C@H](CC(=O)NCCCN(C)C)CC[C@@H]32)cc1	inactive
CC(C)NC(=O)Nc1ccc2c(c1)C(=O)N([C@@H](C)CO)C[C@@H](C)[C@@H](CN(C)Cc1ccc(-c3ccccc3)cc1)O2	inactive
O=C(C[C@@H]1CC[C@@H]2[C@H](COC[C@@H](O)CN2C(=O)Nc2cccc(Cl)c2)O1)NCc1ccccc1F	inactive
COc1cccc(NC(=O)N2C[C@@H](O)COC[C@H]3O[C@H](CC(=O)NC4Cc5ccccc5C4)CC[C@@H]32)c1	inactive
C[C@@H]1CN([C@@H](C)CO)C(=O)c2cc(N(C)C)ccc2O[C@@H]1CN(C)S(=O)(=O)c1ccc(Cl)cc1	inactive
CC(=O)N[C@H]1[C@H](O[C@H]2CC[C@]3(C)[C@H]4CC=C5[C@@H]6CC(C)(C)CC[C@]6(C(=O)O[C@H]6OC[C@@H](O)[C@@H](O)[C@@H]6O)[C@@H](O)C[C@@]5(C)[C@]4(C)CC[C@H]3C2(C)C)O[C@H](CO[C@H]2OC[C@@H](O)[C@@H](O[C@H]3OC[C@@H](O)[C@@H](O)[C@@H]3O)[C@@H]2O)[C@@H](O[C@@H]2O[C@@H](C)[C@H](O)[C@@H](O)[C@H]2O[C@@H]2O[C@@H](C)[C@H](O)[C@@H](O)[C@H]2O)[C@@H]1O	inactive
COc1ccc(CN(C)C[C@H]2OCCCC[C@@H](C)Oc3ccc(NS(=O)(=O)c4ccc(OC)cc4)cc3C(=O)N([C@H](C)CO)C[C@@H]2C)cc1	inactive
C[C@H]1CN([C@@H](C)CO)C(=O)c2cccc(NS(=O)(=O)c3ccc(F)cc3)c2O[C@H]1CN(C)Cc1ccncc1	inactive
Cc1noc(C)c1NC(=O)Nc1ccc2c(c1)CC(=O)N([C@@H](C)CO)C[C@@H](C)[C@@H](CN(C)C(=O)Nc1cccc3ccccc13)O2	inactive
